By IC50 is meant the dose at which the fit gives 50% viability; a fit beyond the top or the lowest dose is shown as a bound at that dose. The AUC spans the tested range (256-fold, ending at the top dose) of the same fit; the more sensitive the line, the further below 1. Where the top dose is marked as inferred, it is not printed in the source and was worked back from the curve model.

Compound in the test: CCOc1cc2ncc(C#N)c(Nc3ccc(F)c(Cl)c3)c2cc1NC(=O)/C=C/CN(C)C [EKB-569]
Kind of test: Viability of human cancer cell lines after 72 h of drug (GDSC screen). Particulars: top dose inferred. As for the experimental part: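 Human cancer cell lines in 384-well plates, medium with 10% serum, drug for 72 h over a 256-fold dose range (nine 2-fold or five 4-fold steps up to the top dose). Adherent lines were fixed and stained with the nucleic acid dye Syto60, suspension lines read with resazurin; signal relative to control wells, capped at 0 and 100%. One two-parameter sigmoid per drug and line, fitted in a mixed model over all curves with the slope shared within a line.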
Broadly, the IC50 is the midpoint of a concentration-inhibition curve. As for PA-1 (ovary, adherent, top dose 2.5 µM), the AUC was found to be 0.636 and the IC50 worked out at 338 nM.

Take “KARPAS-422 (B-cell lymphoma, suspension, top dose 2.5 µM)”: the AUC turned out to be 0.89 and the IC50 is above 2500 nM.

Turning to “HSC-2 (head and neck, adherent, top dose 2.5 µM)”, the AUC turned out to be 0.95 and the IC50 was above 2500 nM.

Take “SK-CO-1 (large intestine, adherent, top dose 2.5 µM)”: the AUC turned out to be 0.986 and the IC50 was above 2500 nM.

In the case of “TE-10 (oesophagus, adherent, top dose 2.5 µM)”, the AUC was determined as 0.915 and the IC50 was above 2500 nM.

Turning to “PA-TU-8902 (pancreas, adherent, top dose 2.5 µM)”, the AUC was determined as 0.934 and the IC50 was above 2500 nM.

Turning to “NCI-H2141 (small cell lung carcinoma, suspension, top dose 2.5 µM)”, the AUC turned out to be 0.989 and the IC50 was above 2500 nM.

In the case of “CAL-120 (breast, adherent, top dose 2.5 µM)”, the AUC is 0.791 and the IC50 turned out to be 1500 nM.

Take Hey (ovary, adherent, top dose 2.5 µM): the AUC amounted to 0.902 and the IC50 was above 2500 nM.

As to “SK-PN-DW (Ewing sarcoma, adherent, top dose 2.5 µM)”, the AUC worked out at 0.923 and the IC50 is above 2500 nM.

For the cell line “LCLC-97TM1 (large cell lung carcinoma, adherent, top dose 2.5 µM)”, the AUC was 0.815 and the IC50 amounted to 1550 nM.

As for “CGTH-W-1 (thyroid, adherent, top dose 2.5 µM)”, the AUC came out at 0.951 and the IC50 was above 2500 nM.

Consider “SK-MEL-3 (melanoma, adherent, top dose 2.5 µM)”, for which the AUC is 0.925 and the IC50 was above 2500 nM.

Consider “HH (T-cell leukaemia, suspension, top dose 2.5 µM)”, for which the AUC came to 0.826 and the IC50 amounted to 2250 nM.

For the cell line “NCI-H322M (lung adenocarcinoma, suspension, top dose 2.5 µM)”, the AUC came out at 0.888 and the IC50 was above 2500 nM.

Take “MDA-MB-361 (breast, adherent, top dose 2.5 µM)”: the AUC is 0.796 and the IC50 was determined as 1160 nM.

Regarding “DMS-114 (small cell lung carcinoma, adherent, top dose 2.5 µM)”, the AUC was 0.972 and the IC50 is above 2500 nM.

Turning to “OS-RC-2 (kidney, adherent, top dose 2.5 µM)”, the AUC is 0.867 and the IC50 is above 2500 nM.

Consider “EJM (lymphoid neoplasm, semi-adherent, top dose 2.5 µM)”, for which the AUC was 0.923 and the IC50 was above 2500 nM.

As to “TGBC11TKB (stomach, adherent, top dose 2.5 µM)”, the AUC stood at 0.991 and the IC50 is above 2500 nM.

Turning to C3A (liver, adherent, top dose 2.5 µM), the AUC came out at 0.988 and the IC50 is above 2500 nM.

Consider “MZ2-MEL (melanoma, adherent, top dose 2.5 µM)”, for which the AUC came out at 0.883 and the IC50 is above 2500 nM.

Consider “KYSE-180 (oesophagus, adherent, top dose 2.5 µM)”, for which the AUC was determined as 0.875 and the half-maximal inhibitory concentration (IC50) was determined as 2260 nM.

Take “CAL-51 (breast, adherent, top dose 2.5 µM)”: the AUC came out at 0.974 and the IC50 is above 2500 nM.

For the cell line DJM-1 (skin, adherent, top dose 2.5 µM), the AUC came out at 0.976 and the IC50 is above 2500 nM.

Consider “COR-L321 (lung, suspension, top dose 2.5 µM)”, for which the AUC is 0.961 and the IC50 is above 2500 nM.

In the case of “KYSE-220 (oesophagus, adherent, top dose 2.5 µM)”, the AUC turned out to be 0.757 and the IC50 turned out to be 904 nM.

In the case of “SW982 (soft tissue, adherent, top dose 2.5 µM)”, the AUC was 0.906 and the IC50 was above 2500 nM.

With “SNU-449 (liver, adherent, top dose 2.5 µM)”, the AUC is 0.758 and the IC50 was 940 nM.

As for “MIA-PaCa-2 (pancreas, adherent, top dose 2.5 µM)”, the AUC was 0.984 and the IC50 is above 2500 nM.

On to “RERF-LC-MS (lung adenocarcinoma, adherent, top dose 2.5 µM)”, for which the AUC was determined as 0.97 and the IC50 is above 2500 nM.

With “NCI-H1355 (lung adenocarcinoma, adherent, top dose 2.5 µM)”, the AUC stood at 0.968 and the concentration for half-maximal inhibition (IC50) was above 2500 nM.

With “ME-1 (acute myeloid leukaemia, suspension, top dose 2.5 µM)”, the AUC was found to be 0.865 and the IC50 amounted to 2490 nM.

For the cell line “LOU-NH91 (lung squamous cell carcinoma, adherent, top dose 2.5 µM)”, the AUC is 0.962 and the IC50 is above 2500 nM.

Turning to “EN (endometrium, adherent, top dose 2.5 µM)”, the AUC turned out to be 0.971 and the IC50 was above 2500 nM.

With “LC-1-sq (lung squamous cell carcinoma, adherent, top dose 2.5 µM)”, the AUC worked out at 0.836 and the IC50 came to 2080 nM.

For the cell line “RCM-1 (large intestine, adherent, top dose 2.5 µM)”, the AUC was determined as 0.949 and the IC50 was above 2500 nM.

For “NCI-H727 (lung carcinoid, adherent, top dose 2.5 µM)”, the AUC stood at 0.767 and the IC50 came to 1620 nM.

As for “PCI-15A (head and neck, adherent, top dose 2.5 µM)”, the AUC worked out at 0.818 and the IC50 is 1420 nM.

Turning to “HSC-39 (stomach, suspension, top dose 2.5 µM)”, the AUC is 0.922 and the IC50 was above 2500 nM.

On to “SIMA (neuroblastoma, adherent, top dose 2.5 µM)”, for which the AUC worked out at 0.958 and the IC50 was above 2500 nM.

Regarding “JHH-7 (liver, adherent, top dose 2.5 µM)”, the AUC turned out to be 0.972 and the IC50 was above 2500 nM.

For “NOMO-1 (acute myeloid leukaemia, suspension, top dose 2.5 µM)”, the AUC was determined as 0.783 and the IC50 was determined as 1200 nM.

Take “KOPN-8 (B-cell leukaemia, suspension, top dose 2.5 µM)”: the AUC was 0.688 and the IC50 was 481 nM.

For the cell line “H2869 (mesothelioma, adherent, top dose 2.5 µM)”, the AUC was determined as 0.883 and the IC50 is above 2500 nM.

Turning to “NU-DUL-1 (B-cell lymphoma, suspension, top dose 2.5 µM)”, the AUC turned out to be 0.802 and the IC50 amounted to 957 nM.

As to “UACC-62 (melanoma, adherent, top dose 2.5 µM)”, the AUC is 0.979 and the IC50 is above 2500 nM.

Regarding “KP-4 (pancreas, adherent, top dose 2.5 µM)”, the AUC was determined as 0.94 and the IC50 was above 2500 nM.

As for “UACC-257 (melanoma, adherent, top dose 2.5 µM)”, the AUC was 0.957 and the IC50 is above 2500 nM.

Regarding “EM-2 (chronic myeloid leukaemia, suspension, top dose 2.5 µM)”, the AUC is 0.837 and the IC50 stood at 2000 nM.

As for “ME-180 (cervix, adherent, top dose 2.5 µM)”, the AUC is 0.651 and the IC50 is 419 nM.

For the cell line “KARPAS-299 (anaplastic large cell lymphoma, suspension, top dose 2.5 µM)”, the AUC came to 0.929 and the IC50 is above 2500 nM.

With “OV-90 (ovary, adherent, top dose 2.5 µM)”, the AUC worked out at 0.968 and the IC50 is above 2500 nM.

Turning to “P30-OHK (lymphoblastic leukaemia, suspension, top dose 2.5 µM)”, the AUC came to 0.428 and the IC50 turned out to be 103 nM.

On to “NCI-H64 (small cell lung carcinoma, suspension, top dose 2.5 µM)”, for which the AUC stood at 0.975 and the IC50 was above 2500 nM.

“IST-SL2 (small cell lung carcinoma, suspension, top dose 2.5 µM)”: the AUC turned out to be 0.787 and the IC50 came out at 1080 nM.

On to “MEG-01 (chronic myeloid leukaemia, suspension, top dose 2.5 µM)”, for which the AUC came out at 0.591 and the IC50 is 273 nM.

With “LOUCY (T-cell lymphoblastic leukaemia, suspension, top dose 20 µM)”, the AUC was 0.191 and the IC50 came out at 191 nM.

On to “SUIT-2 (pancreas, adherent, top dose 2.5 µM)”, for which the AUC amounted to 0.558 and the IC50 stood at 227 nM.

For “JJN-3 (haematopoietic neoplasm, suspension, top dose 2.5 µM)”, the AUC came out at 0.951 and the IC50 was above 2500 nM.

For “NB69 (neuroblastoma, adherent, top dose 2.5 µM)”, the AUC was found to be 0.833 and the IC50 was 1370 nM.

As to “NCI-H2170 (lung squamous cell carcinoma, adherent, top dose 2.5 µM)”, the AUC worked out at 0.918 and the IC50 was above 2500 nM.

For the cell line “NCI-H1915 (large cell lung carcinoma, adherent, top dose 2.5 µM)”, the AUC worked out at 0.926 and the IC50 was above 2500 nM.

Regarding “A4-Fuk (B-cell lymphoma, suspension, top dose 2.5 µM)”, the AUC stood at 0.949 and the IC50 was above 2500 nM.

Consider “C-33-A (cervix, adherent, top dose 2.5 µM)”, for which the AUC came out at 0.8 and the IC50 is 1220 nM.
